# Measured values taken from the supplement of paper PMC8728848.
# Some of the results follow.
# B1: rAAL-2 (Agrocybe aegerita) (protein)
# chain: MTSNVITQDLPIPVASRGFADIVGFGLDGVVIGRNAVNLQPFLAVKNFAQNAGGWLTTKHVRLIADTTGTGKGDIVGFGNAGVYVSVNNGKNTFADPPKMVIANFGYDAGGWRVEKHLRYLADIRKIGRADIIGFGEKGVLVSRNNGGLNFGPATLVLKDFGYDAGGWRLDRHLRFLADVTGNGHLDIVGFGDKHVFISRNNGDGTFAPAKSVIDNFCIDAGGWKIGDHPRFVADLTGDGTADIIGCGKAGCWVALNNGGGVFGQVKLVINDFGTDKGWQAAKHPRFIADLTGNGRGDVVGFGNAGVYVALNNGDGTFQSAKLVLKDFGVQQGWTVSKHRRFVVDLTGDGCADIIGFGEKETLVSYNDGKGNFGPVKALTNDFSFSGGKWAPETTVCWMANLDSSRH
# Experiments:
# Assay in all cases: glycan array binding signal (z-score within array); higher = stronger binding
# Settings in all cases: glycan notation: IUPAC condensed, linker removed
# [1] = target: Fuc(a1-2)Gal
# Outline: (§1)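 The Consortium for Functional Glycomics database supplied 3228 glycan arrays, of which those lacking an available protein sequence were dropped. The binding signal, a within-array Z-score, was averaged across arrays of the same protein sequence and across linkers. Negative scores can be read as non-binding.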
# [2] = target: Fuc(a1-2)Gal(b1-3)GalNAc
# Outline: as §1
# [3] = target: Fuc(a1-2)Gal(b1-3)GalNAc(a1-3)[Fuc(a1-2)]Gal(b1-4)Glc
# Outline: as §1
# [4] = target: Fuc(a1-2)Gal(b1-3)GalNAc(a1-3)[Fuc(a1-2)]Gal(b1-4)GlcNAc
# Outline: as §1
# [5] = target: Fuc(a1-2)Gal(b1-3)GalNAc(b1-3)Gal
# Outline: as §1
# [6] = target: Fuc(a1-2)Gal(b1-3)GalNAc(b1-3)Gal(a1-4)Gal(b1-4)Glc
# Outline: as §1
# [7] = target: Fuc(a1-2)Gal(b1-3)GalNAc(b1-4)[Neu5Ac(a2-3)]Gal(b1-4)Glc
# Outline: as §1
# [8] = target: Fuc(a1-2)Gal(b1-3)GlcNAc
# Outline: as §1
# [9] = target: Fuc(a1-2)Gal(b1-3)GlcNAc(b1-2)Man(a1-3)[Fuc(a1-2)Gal(b1-3)GlcNAc(b1-2)Man(a1-6)]Man(b1-4)GlcNAc(b1-4)GlcNAc
# Outline: as §1
# [10] = target: Fuc(a1-2)Gal(b1-3)GlcNAc(b1-2)Man(a1-3)[Fuc(a1-2)Gal(b1-3)GlcNAc(b1-2)Man(a1-6)]Man(b1-4)GlcNAc(b1-4)[Fuc(a1-6)]GlcNAc
# Outline: as §1
# [11] = target: Fuc(a1-2)Gal(b1-3)GlcNAc(b1-3)Gal(b1-4)Glc
# Outline: as §1
# [12] = target: Fuc(a1-2)Gal(b1-3)GlcNAc(b1-3)GalNAc
# Outline: as §1
# [13] = target: Fuc(a1-2)Gal(b1-3)GlcNAc(b1-3)[Fuc(a1-2)Gal(b1-3)GlcNAc(b1-6)]GalNAc
# Outline: as §1
# [14] = target: Fuc(a1-2)Gal(b1-3)GlcNAc(b1-3)[Fuc(a1-3)[Gal(b1-4)]GlcNAc(b1-6)]Gal(b1-4)Glc
# Outline: as §1
# [15] = target: Fuc(a1-2)Gal(b1-3)GlcNAc(b1-3)[Gal(b1-4)GlcNAc(b1-6)]Gal(b1-4)Glc
# Outline: as §1
# [16] = target: Fuc(a1-2)Gal(b1-3)GlcNAc(b1-3)[Neu5Ac(a2-6)Gal(b1-4)GlcNAc(b1-6)]Gal(b1-4)Glc
# Outline: as §1
# [17] = target: Fuc(a1-2)Gal(b1-3)GlcNAc6S
# Outline: as §1
# [18] = target: Fuc(a1-2)Gal(b1-3)[Fuc(a1-4)]GlcNAc
# Outline: as §1
# [19] = target: Fuc(a1-2)Gal(b1-3)[Fuc(a1-4)]GlcNAc(b1-2)Man(a1-3)[Fuc(a1-2)Gal(b1-3)[Fuc(a1-4)]GlcNAc(b1-2)Man(a1-3)]Man(b1-4)GlcNAc(b1-4)GlcNAc
# Outline: as §1
# [20] = target: Fuc(a1-2)Gal(b1-3)[Fuc(a1-4)]GlcNAc(b1-2)Man(a1-3)[Fuc(a1-2)Gal(b1-3)[Fuc(a1-4)]GlcNAc(b1-2)Man(a1-6)]Man(b1-4)GlcNAc(b1-4)GlcNAc
# Outline: as §1
# [21] = target: Fuc(a1-2)Gal(b1-3)[Fuc(a1-4)]GlcNAc(b1-2)Man(a1-3)[Fuc(a1-2)Gal(b1-3)[Fuc(a1-4)]GlcNAc(b1-2)Man(a1-6)]Man(b1-4)GlcNAc(b1-4)[Fuc(a1-6)]GlcNAc(b1-4)[Fuc(a1-6)]GlcNAc
# Outline: as §1
# [22] = target: Fuc(a1-2)Gal(b1-3)[Fuc(a1-4)]GlcNAc(b1-3)[Fuc(a1-3)[Gal(b1-4)]GlcNAc(b1-6)]Gal(b1-4)Glc
# Outline: as §1
# [23] = target: Fuc(a1-2)Gal(b1-3)[Fuc(a1-4)]GlcNAc(b1-3)[Gal(b1-4)GlcNAc(b1-6)]Gal(b1-4)Glc
# Outline: as §1
# [24] = target: Fuc(a1-2)Gal(b1-4)Fuc(a1-3)]GlcNAc(b1-2)Man(a1-3)[Fuc(a1-2)Gal(b1-4)[Fuc(a1-3)]GlcNAc(b1-2)Man(a1-6)]Man(b1-4)GlcNAc(b1-4)GlcNAc
# Outline: as §1
# [25] = target: Fuc(a1-2)Gal(b1-4)Glc
# Outline: as §1
# [26] = target: Fuc(a1-2)Gal(b1-4)Glc6S
# Outline: as §1
# [27] = target: Fuc(a1-2)Gal(b1-4)GlcNAc
# Outline: as §1
# [28] = target: Fuc(a1-2)Gal(b1-4)GlcNAc(b1-2)Man
# Outline: as §1
# [29] = target: Fuc(a1-2)Gal(b1-4)GlcNAc(b1-2)Man(a1-3)[Fuc(a1-2)Gal(b1-4)GlcNAc(b1-2)Man(a1-6)]Man(b1-4)GlcNAc(b1-4)GlcNAc
# Outline: as §1
# [30] = target: Fuc(a1-2)Gal(b1-4)GlcNAc(b1-2)Man(a1-3)[Fuc(a1-2)Gal(b1-4)GlcNAc(b1-2)Man(a1-6)]Man(b1-4)GlcNAc(b1-4)[Fuc(a1-6)]GlcNAc
# Outline: as §1
binder,measurement,setting,value
B1,glycan array binding signal (z-score),[1],-0.336
same,glycan array binding signal (z-score),[2],-0.253
same,glycan array binding signal (z-score),[3],-0.341
same,glycan array binding signal (z-score),[4],-0.201
same,glycan array binding signal (z-score),[5],-0.208
same,glycan array binding signal (z-score),[6],-0.123
same,glycan array binding signal (z-score),[7],-0.336
same,glycan array binding signal (z-score),[8],-0.264
same,glycan array binding signal (z-score),[9],-0.092
same,glycan array binding signal (z-score),[10],-0.075
same,glycan array binding signal (z-score),[11],-0.219
same,glycan array binding signal (z-score),[12],-0.137
same,glycan array binding signal (z-score),[13],-0.087
same,glycan array binding signal (z-score),[14],-0.23
same,glycan array binding signal (z-score),[15],-0.312
same,glycan array binding signal (z-score),[16],-0.228
same,glycan array binding signal (z-score),[17],-0.444
same,glycan array binding signal (z-score),[18],-0.348
same,glycan array binding signal (z-score),[19],0.08
same,glycan array binding signal (z-score),[20],-0.176
same,glycan array binding signal (z-score),[21],0.099
same,glycan array binding signal (z-score),[22],-0.358
same,glycan array binding signal (z-score),[23],-0.046
same,glycan array binding signal (z-score),[24],0.288
same,glycan array binding signal (z-score),[25],-0.334
same,glycan array binding signal (z-score),[26],-0.173
same,glycan array binding signal (z-score),[27],-0.344
same,glycan array binding signal (z-score),[28],-0.247
same,glycan array binding signal (z-score),[29],-0.013
same,glycan array binding signal (z-score),[30],-0.215
